Assay results as given in PubChem BioAssay AID686978 (National Center for Advancing Translational Sciences (NCATS), 2013).
Among all 420,000 compounds or so, about 64,000 (15%) were called active. This list was built around the results that the source calls inconclusive (neither active nor inactive); the mix of calls is not that of the screen. Calls follow the shape of the dose curve; as a rule, active = well fitted inhibition curve with a large enough effect; inconclusive = small, poorly fitted or top-dose-only effect; inactive = flat fitted curve, though single readings scatter. Potencies of inconclusive entries are left out as doubtful fits.

assay: qHTS for Inhibitors of human tyrosyl-DNA phosphodiesterase 1 (TDP1): qHTS in cells in absence of CPT; settings: DT40 Tdp1-/- hTDP1 cells, no CPT, ATP luminescence, 48 h; activity change, negative = growth inhibition: at 46.2 µM (top of the series) unless noted; also: nearly all actives have a fitted effect of over 55% in size
Summary of the method: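 Cells were dispensed at 400 per well, compounds added by pin tool, plates incubated ≥48 hr at 37 °C, then CellTiter-Glo added for 30 min at room temperature before luminescence reading. Line: DT40 Tdp1-/- complemented with hTDP1; camptothecin omitted.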
% is scaled to controls: 0 for no effect and ±100 for the full control effect; potency is read from the fitted curve at half-maximal effect; tags tell the direction and shape of the fitted curve.

Question: For CC1(C)C(=O)OC(c2ccccc2)C(C)(C)C1=O (stereo not given), which Potency is on record?
Answer: inactive

Question: For CCC(CC)NCc1ccc(OC)cc1OC, which Potency is on record?
Answer: inactive

Question: With COc1cccc(OCc2cc(=O)n3c(-c4ccccc4)csc3n2)c1 as the compound, how does the Potency read?
Answer: inconclusive [inhibitor, single point]

Question: With COc1ccc(CCNC(=O)c2ccc3c(c2)N(Cc2ccccc2F)C(=O)c2ccccc2S3=O)cc1OC (stereo not given) as the compound, how does the Potency read?
Answer: active: 25.9 µM

Question: With O=C(COC(=O)c1ccc(S(=O)(=O)Nc2ccccc2)cc1)NCc1ccco1 as the compound, how does the Potency read?
Answer: inactive

Question: For COC(=O)c1cccc(NC(=O)c2nsc3ccccc23)c1, which Potency is on record?
Answer: inconclusive [inhibitor, single point]

Question: For CC1CC(C)CN(C(=O)c2ccc3c(c2)N(Cc2ccccc2)CCS3)C1 (stereo not given), which Potency is on record?
Answer: inconclusive [inhibitor, single point]

Question: Which Potency does the source give for CC(=O)c1c(C)[nH]c(C(=O)OCC(=O)Nc2ccc(Cl)cc2[N+](=O)[O-])c1C here?
Answer: active: 1.84 µM

Question: For CCOC(=O)c1cn(Cc2c(C)c(C)c(C)c(C)c2C)nn1, which Potency is on record?
Answer: active: 23.1 µM

Question: For CC(C)C1C(=O)N(Cc2cn(CC3CCCCC3)nn2)CCS(=O)(=O)N1Cc1ccc(-c2ccncc2)cc1 (stereo not given), which Potency is on record?
Answer: inconclusive [inhibitor, single point]

Question: For COc1ccc(N2CCN(S(=O)(=O)CCNC(=O)COc3ccccc3F)CC2)cc1, which Potency is on record?
Answer: inactive

Question: With C=CCn1c(N/N=C/c2ccc(O)cc2)nc2ccccc2c1=O as the compound, how does the Potency read?
Answer: active: 14.6 µM

Question: With O=Cc1cn(CCOc2ccccc2F)c2ccccc12 as the compound, how does the Potency read?
Answer: inconclusive [inhibitor, single point]

Question: With Cc1cc2c3c(c1C)C1(C(=O)N3C(C)(C)CC2C)C(C#N)=C(N)OC2=C1C(=O)CC(C)(C)C2 (stereo not given) as the compound, how does the Potency read?
Answer: inconclusive [inhibitor, partial curve, poor fit]

Question: Which Potency does the source give for CCN(CC)S(=O)(=O)c1ccc(C(=O)NCCSc2c(-c3ccc(C)cc3)[nH]c3ccccc23)cc1 here?
Answer: active: 8.2 µM

Question: Which Potency does the source give for CCOc1ccccc1CNC(=O)CCc1c(C)nn(-c2ccc(N3CCOCC3)nn2)c1C here?
Answer: inconclusive [inhibitor, single point]

Question: With CN(C)S(=O)(=O)c1ccc(C(=O)NCCN=C2NS(=O)(=O)c3ccccc32)cc1 as the compound, how does the Potency read?
Answer: inactive

Question: With CCCCN=C(Nc1ccc(Cl)cc1)c1cccnc1 as the compound, how does the Potency read?
Answer: inactive

Question: Which Potency does the source give for Cc1cccc(Cn2cnc3c(NS(C)(=O)=O)c(C)c(C)cc32)c1 here?
Answer: inconclusive [inhibitor, single point]

Question: With O=C(Nc1ccc(OCC(F)(F)C(F)F)c(C(F)(F)F)c1)c1ccc(Cl)cc1 as the compound, how does the Potency read?
Answer: inconclusive [inhibitor, single point]

Question: For COc1ccc(NS(=O)(=O)c2ccc3oc(=O)c4[nH]c(=O)c(=O)n(C)c4c3c2)cc1, which Potency is on record?
Answer: inconclusive [inhibitor, single point]

Question: With COc1ccc2cc3cc(C(=O)N4CCN(Cc5ccc6c(c5)OCO6)CC4)oc3nc2c1 as the compound, how does the Potency read?
Answer: inconclusive [inhibitor, single point]

Question: Which Potency does the source give for CCOC(=O)c1ccc(NS(=O)(=O)c2ccc(SC)cc2)cc1 here?
Answer: inconclusive [inhibitor, single point]

Question: Which Potency does the source give for CCCCOC(=O)c1nc[nH]c1C(=O)OCCCC here?
Answer: inactive

Question: Which Potency does the source give for CS(=O)(=O)N1CCC(C(=O)Nc2ccccc2)CC1 here?
Answer: inactive

Question: With COc1ccc(OC)c(S(=O)(=O)N2CCC(C(=O)Nc3cccc(C)c3C)CC2)c1 as the compound, how does the Potency read?
Answer: inactive

Question: With O=C(NCC1CCCCC1)c1cccc([N+](=O)[O-])c1 as the compound, how does the Potency read?
Answer: inconclusive [inhibitor, single point]

Question: Which Potency does the source give for COC(=O)c1sccc1NC(=O)c1csc(C)c1 here?
Answer: inactive

Question: With CC1CCc2onc(C(=O)O)c2C1 (stereo not given) as the compound, how does the Potency read?
Answer: inactive

Question: Which Potency does the source give for Cc1cn([C@H]2C[C@H](O)[C@@H](CNC=O)O2)c(=O)[nH]c1=O here?
Answer: inconclusive [inhibitor, full curve, poor fit]

Question: With COCCN1CCn2c(nc3cc(NS(C)(=O)=O)ccc32)C1 as the compound, how does the Potency read?
Answer: inactive

Question: With Cc1ccc2c(c1)C(=O)C(=O)N2CCCOc1ccccc1 as the compound, how does the Potency read?
Answer: active: 2.06 µM

Question: With COc1cccc(C2=NOC(C(=O)Nc3cccnc3Cl)C2)c1 (stereo not given) as the compound, how does the Potency read?
Answer: inactive

Question: For O=C(NC1CCS(=O)(=O)C1)c1cccs1 (stereo not given), which Potency is on record?
Answer: inactive

Question: Which Potency does the source give for CC(=O)Nc1ccc(S(=O)(=O)NC(C)c2ccncc2)cc1 (stereo not given) here?
Answer: inconclusive [inhibitor, single point]

Question: With Cc1ccc(S(=O)(=O)NC(CC(C)C)C(=O)N2CCC(C)CC2)cc1 (stereo not given) as the compound, how does the Potency read?
Answer: inconclusive [inhibitor, single point]

Question: With CC1Cc2ccccc2N1C(=O)CSc1nnc2n1C(C)(C)Cc1ccccc1-2 (stereo not given) as the compound, how does the Potency read?
Answer: active: 20.6 µM

Question: Which Potency does the source give for CN1CCN(c2nc(Nc3ccc(O)cc3)nc3ccccc23)CC1 here?
Answer: inconclusive [inhibitor, single point]

Question: For CC(=O)N(c1ccccc1)C(C)c1nc(C#N)c(C#N)nc1C (stereo not given), which Potency is on record?
Answer: inconclusive [inhibitor, single point]

Question: With Cc1onc(-c2ccccc2)c1C(=O)N=C(N)c1ccc(C(F)(F)F)cc1 as the compound, how does the Potency read?
Answer: inactive

Question: Which Potency does the source give for Cc1nc(C)c(-c2ccc(SCc3ccc([N+](=O)[O-])cc3)nn2)s1 here?
Answer: inconclusive [inhibitor, single point]

Question: With Cc1cccc(-c2nnc(SCC(=O)NCc3ccc4c(c3)OCO4)n2C)c1 as the compound, how does the Potency read?
Answer: inconclusive [inhibitor, partial curve]

Question: With CC(C)CC(=O)Nc1nnc(S(=O)(=O)Nc2ccccc2)s1 as the compound, how does the Potency read?
Answer: inactive

Question: With COc1ccc(-n2c(-c3ccc(C)cc3)cc3c2CC(C)(C)CC3=O)c(OC)c1 as the compound, how does the Potency read?
Answer: inconclusive [inhibitor, single point]

Question: Which Potency does the source give for CN/C(=C/[N+](=O)[O-])NCCSCc1csc(CN(C)C)n1 here?
Answer: inactive

Question: With Cc1ccccc1N1C(=O)c2cc(S(N)(=O)=O)c(Cl)cc2NC1C (stereo not given) as the compound, how does the Potency read?
Answer: inactive

Question: With Cc1ccccc1C(=O)NCCc1csc(-c2ccc(C(F)(F)F)cc2)n1 as the compound, how does the Potency read?
Answer: inconclusive [inhibitor, single point]

Question: Which Potency does the source give for Cc1cn2c(=O)cc(COC(=O)c3cccc(NC(=O)COc4ccccc4C)c3)nc2s1 here?
Answer: inconclusive [inhibitor, single point]

Question: For Cc1ccc(NC(=O)CCNS(=O)(=O)c2cccc3nonc23)cc1Cl, which Potency is on record?
Answer: inconclusive [inhibitor, single point]

Question: For COc1cc(/C=C/C(=O)N2CCN(C(=O)/C=C/c3cc(OC)c(OC)c(OC)c3)CC2)cc(OC)c1OC, which Potency is on record?
Answer: inactive

Question: Which Potency does the source give for CC1=C(/C=C/C(C)=N\NC(=O)c2ccncc2)C(C)(C)CCC1 here?
Answer: inconclusive [inhibitor, single point]

Question: Which Potency does the source give for Cc1cccc(C)c1NC(=O)CN1CCN(CC(=O)c2cc(C)n(C3CC3)c2C)CC1 here?
Answer: inconclusive [inhibitor, single point]

Question: With CCCNC(=O)C(C)n1nc(C)c2c(C)n(-c3ccccc3)nc2c1=O (stereo not given) as the compound, how does the Potency read?
Answer: inactive

Question: For CCCCC1(CC)COC(c2ccccc2)OC1 (stereo not given), which Potency is on record?
Answer: inconclusive [inhibitor, single point]

Question: For C=C(C)COc1ccc(-c2nc(N)nc(C)c2Oc2ccccc2OC)c(O)c1, which Potency is on record?
Answer: inconclusive [inhibitor, single point]

Question: For CCN(CC(=O)Nc1cccc(OC)c1)C(=O)c1cnc(Cl)c(Cl)c1, which activity change, negative = growth inhibition is on record?
Answer: inconclusive: -33.7% [inhibitor]

Question: With CC(=O)ON=C1C=CC(=C(C#N)c2ccccc2)C=C1 as the compound, how does the Potency read?
Answer: active: 3.26 µM

Question: Which Potency does the source give for Cc1ccc(CNC(=O)CSc2nc3c(sc4ccccc43)c(=O)n2CCCN2CCCC2)cc1 here?
Answer: inconclusive [inhibitor, single point]

Question: Which Potency does the source give for CN(C)c1ccc(-c2ccnc3c2CC(C)(C(=O)Nc2ccc(F)c(Cl)c2)O3)cc1 (stereo not given) here?
Answer: inconclusive [inhibitor, single point]

Question: For CCOC(=O)C1=C(COC(=O)Cc2ccccc2)NC(=O)NC1C (stereo not given), which Potency is on record?
Answer: inactive

Question: Which Potency does the source give for C[C@H](NC(=O)c1ccccc1Cl)C(=O)OC(C(=O)Nc1cc(C(F)(F)F)ccc1Cl)c1ccccc1 (stereo not given in full) here?
Answer: inactive

Question: For CC(C)Cn1cnc2c(c(-c3ccccc3)c(-c3ccccc3)n2Cc2ccco2)c1=N, which Potency is on record?
Answer: active: 18.4 µM

Question: For Cc1ccc(C)c(NC(=O)C(C)N2C(=O)c3ccccc3C2=O)c1 (stereo not given), which Potency is on record?
Answer: inactive

Question: For C=CCOC(=O)C1=C[C@H](c2csc3ccccc23)C[C@H](OCCCCO)O1, which Potency is on record?
Answer: inconclusive [inhibitor, single point]

Question: For CCN1CCN(c2ccc(S(=O)(=O)N3CCCCC3)cc2NC(=O)COc2ccc(Cl)c(C)c2)CC1, which Potency is on record?
Answer: active: 13 µM

Question: With CCCCN(C)S(=O)(=O)c1cc2c3c(c1)CCC(=O)N3CCC2 as the compound, how does the Potency read?
Answer: inactive

Question: For CCn1c(C(=O)N2CCC(C(=O)NCCCSC3CCCCC3)CC2)cc2sccc21, which Potency is on record?
Answer: active: 18.4 µM

Question: For O=c1oc2cc(O)ccc2cc1-c1nnc(Nc2ccccc2F)s1, which Potency is on record?
Answer: inactive

Question: Which Potency does the source give for Cc1nn(C)cc1CN(C)C(=O)CC12CC3CC(CC(C3)C1)C2 here?
Answer: inconclusive [inhibitor, single point]

Question: Which Potency does the source give for O=C(COc1ncnc2cc([N+](=O)[O-])ccc12)N(CCc1ccccc1)Cc1ccccc1 here?
Answer: inconclusive [inhibitor, partial curve]

Question: With Cc1nc(CCN2C(=O)c3ccccc3C2=O)n[nH]1 as the compound, how does the Potency read?
Answer: active: 23.1 µM

Question: For COc1ccc(CNc2nc3ccccc3n2CCN2CCCCC2)cc1, which Potency is on record?
Answer: active: 20.6 µM

Question: Which Potency does the source give for COc1cc2c(cc1OC)C(NNC(=O)c1ccc(Br)o1)=NC(C)(C)C2 here?
Answer: inconclusive [inhibitor, single point]

Question: With O=C1O[C@@H](c2ccccc2)C[C@@H](O)C(=O)CCCc2ccccc21 as the compound, how does the Potency read?
Answer: inconclusive [inhibitor, single point]

Question: For CC(C)Cn1c(C23CC4CC(CC(C4)C2)C3)n[nH]c1=S, which Potency is on record?
Answer: inconclusive [inhibitor, partial curve]
